Test results as given in the supplement of paper PMC3334620.
Whole data set: some 33,000 sequences, median “E-score (-0.5 to 0.5)” near -0.035, cut for the highest 2% near 0.34. Some of the results follow.

What follows are sequences tested against T1, Mot3 (UniProt P54785) (assay: PBM E-score (8-mer binding enrichment) (E-score (-0.5 to 0.5)); higher = stronger / more preferred TF binding; most listed sequences are background and not binding sites). Details: protein concentration: 200 nM; construct: GST-full length.
T1 sequence: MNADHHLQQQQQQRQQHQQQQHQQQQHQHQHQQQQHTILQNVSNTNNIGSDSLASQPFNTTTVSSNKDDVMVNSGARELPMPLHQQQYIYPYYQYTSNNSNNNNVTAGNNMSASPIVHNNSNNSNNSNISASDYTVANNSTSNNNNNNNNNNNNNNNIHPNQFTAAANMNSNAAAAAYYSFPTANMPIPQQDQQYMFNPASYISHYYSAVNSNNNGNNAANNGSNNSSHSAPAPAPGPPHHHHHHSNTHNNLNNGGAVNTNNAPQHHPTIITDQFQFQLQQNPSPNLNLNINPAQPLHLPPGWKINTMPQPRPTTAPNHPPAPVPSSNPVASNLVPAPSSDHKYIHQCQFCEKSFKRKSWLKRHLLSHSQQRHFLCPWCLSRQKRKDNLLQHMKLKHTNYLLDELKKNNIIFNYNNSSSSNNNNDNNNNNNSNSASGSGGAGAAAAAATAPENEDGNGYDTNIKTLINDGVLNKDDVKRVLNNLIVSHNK
Summary of the method: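 Full-length yeast transcription factors or their DNA-binding domains, GST-tagged and expressed with PURExpress, were applied at about 100-200 nM to universal all-10-mer Agilent arrays. These arrays had been made double-stranded by primer extension on fresh or once-stripped slides. Detection used fluorescent anti-GST, normalisation used masliner, and E-scores for ungapped eight-base words pooled with reverse complements came from the Universal PBM Analysis Suite.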

| Sequence | PBM E-score |
| --- | --- |
| TCCGACCA | -0.139 |
| CTGCAGTC | -0.106 |
| TATCAGAA | 0.0312 |
| ATATGAAA | 0.141 |
| ATAATTGG | -0.204 |
| AATATAGT | 0.085 |
| GTATTATA | 0.187 |
| ATGAGTTC | 0.0311 |
| ATAACCGG | -0.205 |
| AGACTATG | -0.0459 |
| CTCAGAGC | -0.168 |
| GAAAACGA | -0.0665 |
| TGGTAACA | 0.141 |
| AAAAAAAT | 0.171 |
| GAGAAAAC | 0.00577 |
| AAATTACC | 0.209 |
| AGAGTAGC | -0.162 |
| CTTGGTAC | 0.175 |
| AATATGCC | -0.0377 |
| CTTTTCAC | 0.173 |
| CTGATTAA | 0.112 |
| GGGACTAC | -0.199 |
| CAATGCAC | 0.085 |
| CAGTAATA | 0.191 |
| CGAGCGGA | -0.341 |

| Sequence | PBM E-score |
| --- | --- |
| GAGATTAA | -0.0414 |
| ATTTGTTA | 0.109 |
| ACGGGCAG | 0.142 |
| CCACAGTA | -0.0585 |
| CATTAATG | 0.0688 |
| AGAGGCTC | -0.395 |
| CGCAGCAA | -0.18 |
| AAATTGCT | -0.0187 |
| ATCTGAAG | -0.201 |
| AATCGTTC | -0.076 |
| CCTGGGTC | -0.0668 |
| AGTTGATG | 0.189 |
| AAGTACAG | -0.0233 |
| TGTCTAAA | 0.295 |
| CGTCCAAG | -0.303 |
| ATCTTATC | 0.0474 |
| GGGCGCTA | -0.168 |
| ATCCCAAG | -0.243 |
| ACCCACAC | -0.0586 |
| GAGGGCGC | -0.165 |
| GGAGAGCA | -0.0284 |
| CATAGATG | 0.0346 |
| GGAAGGAC | -0.122 |
| GAGTTAAA | 0.153 |
| GACGCAGA | -0.116 |

| Sequence | PBM E-score |
| --- | --- |
| TCAACACA | 0.353 |
| AGTCCAAT | -0.0678 |
| CTCAATAA | -0.0988 |
| CTCCTCAC | -0.136 |
| GTAGTCCA | -0.115 |
| AAAGGGTC | 0.023 |
| AGGGCACG | 0.285 |
| GCTATCGA | -0.138 |
| GCGCGGCA | -0.0979 |
| TACCGTAA | 0.11 |
| ATAGTCCC | -0.234 |
| ATCCGGAA | -0.219 |
| AACGACAC | 0.0877 |
| ACATGGAT | 0.294 |
| AACTGCGT | 0.0413 |
| AAAATTAT | 0.216 |
| CATCTTTA | 0.118 |
| ACCCTCTA | 0.0362 |
| ATCTTCAT | -0.0494 |
| GATGAACA | 0.14 |
| CTTGTTTC | 0.136 |
| CAAGCGAC | -0.0636 |
| ACTCATAG | -0.118 |
| GCTTAGCA | -0.064 |
| CCTCGGAA | -0.137 |

| Sequence | PBM E-score |
| --- | --- |
| CCTCGTGC | 0.016 |
| GCACTAGA | -0.177 |
| AACGATAG | 0.119 |
| ATACGTTA | 0.158 |
| CTAGCCCC | -0.222 |
| ATCAGAGC | -0.212 |
| CTATGGAA | -0.0756 |
| CTGGAAAG | -0.158 |
| ACATATCA | 0.124 |
| CGAGTGGC | -0.194 |
| CTTCCGCA | -0.179 |
| CACAATAC | 0.125 |
| ACGTCGTC | -0.00298 |
| AGCCAAAA | 0.0655 |
| AGTTCGTA | 0.195 |
| TGCGTCCA | -0.281 |
| CTTGGTTC | 0.0572 |
| CAAACATG | 0.258 |
| ACCTTGGC | -0.101 |
| TTAACCAA | 0.0506 |
| GAAACGCA | -0.0449 |
| CTCAGGGC | -0.29 |
| CTGCCTCC | -0.215 |
| CACAGAAA | 0.195 |
| CCCAAGTC | -0.284 |

| Sequence | PBM E-score |
| --- | --- |
| GACTATGA | -0.191 |
| CGGCATAA | -0.11 |
| CCTCTCAC | -0.155 |
| CGTTGTGA | -0.0244 |
| AAAGGGGC | 0.0724 |
| TCCCTACA | 0.0641 |
| AAGCCGGG | -0.253 |
| GTAGGAAC | 0.457 |
| GAATACCA | -0.0952 |
| GCGACCAA | -0.138 |
| CGCGTAAA | 0.392 |
| AACGGCAA | 0.0287 |
| CTAGGGCA | -0.249 |
| AGTCTCGC | -0.221 |
| AAAGCCTA | 0.261 |
| TCTCTTCA | -0.164 |
| CTCCCCAG | -0.168 |
| ATGTGTTA | 0.316 |
| TAGGTGAA | -0.0094 |
| ACCCTAAG | -0.157 |
| CATTCATA | 0.0769 |
| CTTGGTGC | -0.0843 |
| CCCGGTAC | -0.171 |
| CCTGCACA | 0.161 |
| ATGCATAA | 0.182 |

| Sequence | PBM E-score |
| --- | --- |
| ATGCATCC | -0.14 |
| GAATCCTA | -0.0702 |
| CACACATA | 0.0979 |
| CAGTACTC | -0.249 |
| AACGGTGT | -0.0428 |
| GCAGTGAA | 0.114 |
| CTGTGCAA | 0.00342 |
| CCGTGACC | -0.314 |
| AACTAATG | 0.15 |
| ACCATTAA | 0.0184 |
| ATTCCTTA | 0.211 |
| AACCCAGA | -0.103 |
| TACGTCAA | 0.219 |
| CCTGAGCG | -0.161 |
| ATACCAAT | -0.041 |
| AATTTGCC | 0.245 |
| CTTCGACC | -0.0959 |
| TATTCTCA | -0.00287 |
| AAATACGG | 0.126 |
| CAATGCCG | -0.0723 |
| GATTAGCC | -0.0635 |
| GAAGGCTC | 0.291 |
| CTGACGCA | -0.28 |
| CCACCGTA | -0.223 |
| AGGCTCTC | 0.18 |

| Sequence | PBM E-score |
| --- | --- |
| CCCTAGTC | -0.163 |
| CAGCACGG | -0.0516 |
| ACGAGTAG | 0.00341 |
| AACTTATA | 0.122 |
| ATCAGCGG | -0.307 |
| CTAAGAAC | 0.00066 |
| TCTTCGAA | -0.0401 |
| CACATGAA | 0.185 |
| ATAAGAAC | 0.0775 |
| ATCCCACC | -0.0974 |
| CGCATTTA | 0.0598 |
| CCCAGAGG | -0.301 |
| AGACCGCC | -0.0853 |
| CCCGGACG | -0.269 |
| ATCACCAA | -0.167 |
| ATATCCCG | -0.125 |
| ATCCGAAG | -0.199 |
| AGGCGCAA | 0.136 |
| TTCCGCAA | -0.236 |
| CTTATTGC | -0.0605 |
| AAGTATGT | 0.18 |
| CAGGCGCA | 0.299 |
